From article PMC4336329 (PLoS ONE, 2015)
Screen size: about 310,000 compounds; about 2,200 (0.71%) showed an effect of 50% or more. Effects have a minus sign here. The list shows a part of the results.

What follows are compounds tested against human ether-à-go-go-related gene (hERG) potassium channel (human, UniProt Q12809) (assay: primary screen, population patch clamp on CHO cells stably expressing hERG).
Sequence of human ether-à-go-go-related gene (hERG) potassium channel (Q12809 whole entry, looked up): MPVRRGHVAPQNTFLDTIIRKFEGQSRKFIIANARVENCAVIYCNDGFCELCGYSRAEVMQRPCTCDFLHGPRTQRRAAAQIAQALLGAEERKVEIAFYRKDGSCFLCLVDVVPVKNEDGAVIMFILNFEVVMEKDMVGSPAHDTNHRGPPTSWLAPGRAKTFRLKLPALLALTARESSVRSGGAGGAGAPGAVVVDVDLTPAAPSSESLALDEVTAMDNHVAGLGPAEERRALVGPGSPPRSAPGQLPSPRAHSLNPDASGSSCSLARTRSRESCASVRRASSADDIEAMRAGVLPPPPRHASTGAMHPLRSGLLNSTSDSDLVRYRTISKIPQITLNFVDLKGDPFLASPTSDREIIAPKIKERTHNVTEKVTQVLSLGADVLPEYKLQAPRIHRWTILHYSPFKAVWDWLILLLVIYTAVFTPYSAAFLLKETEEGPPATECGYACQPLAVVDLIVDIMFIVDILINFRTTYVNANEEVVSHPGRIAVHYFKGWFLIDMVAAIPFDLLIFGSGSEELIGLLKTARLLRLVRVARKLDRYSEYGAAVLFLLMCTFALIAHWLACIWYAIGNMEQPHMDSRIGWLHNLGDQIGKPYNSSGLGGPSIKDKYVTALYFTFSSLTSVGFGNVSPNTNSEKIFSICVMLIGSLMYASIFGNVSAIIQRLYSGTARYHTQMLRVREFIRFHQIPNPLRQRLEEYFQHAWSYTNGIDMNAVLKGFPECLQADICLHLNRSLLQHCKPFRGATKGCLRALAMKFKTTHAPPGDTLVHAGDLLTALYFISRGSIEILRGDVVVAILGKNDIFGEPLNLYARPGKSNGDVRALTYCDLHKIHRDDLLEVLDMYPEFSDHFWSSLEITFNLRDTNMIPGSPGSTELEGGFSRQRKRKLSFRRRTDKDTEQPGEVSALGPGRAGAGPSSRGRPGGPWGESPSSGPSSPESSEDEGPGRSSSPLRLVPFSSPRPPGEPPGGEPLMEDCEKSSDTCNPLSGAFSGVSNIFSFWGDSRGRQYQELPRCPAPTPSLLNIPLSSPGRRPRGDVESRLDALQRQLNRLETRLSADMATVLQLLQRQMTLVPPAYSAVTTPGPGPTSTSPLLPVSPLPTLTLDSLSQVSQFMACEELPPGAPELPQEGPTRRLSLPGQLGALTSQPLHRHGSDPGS

Row | Compound | hERG current change (%, negative = inhibition) at 1uM
1 | CCOc1ccccc1NC(=O)Nc1ccc(CC#N)cc1 | 6.25%
2 | O=C(Nc1ccccc1)c1ccccc1OS(=O)(=O)c1ccccc1 | 13.1%
3 | CCOc1ccc(N2C(=O)/C(=C/c3ccccc3)N=C2SC)cc1 | 10.1%
4 | Cc1cccc(Nc2nnc(SCC(=O)c3c(N)n(C4CC4)c(=O)[nH]c3=O)s2)c1 | 10.9%
5 | Cc1ccc(CNC(=O)Nc2ccc3c(c2)N(C)C(=O)CS3)cc1 | 12.7%
6 | CCOc1ccccc1OCC(=O)Nc1cc2c(cc1C(=O)O)OCCCO2 | 12.6%
7 | Oc1ccccc1/C=N/NC(=S)NC1CC2CC1C1C=CCC21 (stereo not drawn) | 20.3%
8 | COc1cc(-c2ccccc2)[nH]c(=S)n1 | 19.1%
9 | COc1ccc(C(=O)CSc2nc3ccc([N+](=O)[O-])cc3[nH]2)cc1 | 6.41%
10 | Cc1ccc(N(CC(=O)NC2CCCCC2C)S(=O)(=O)c2c(C)noc2C)cc1 (stereo not drawn) | 7.21%
11 | CCCc1cnc(N2CCN(C(=S)NC)CC2)nc1 | -1.85%
12 | O=C1CCCC/C1=N\Nc1ccc(C2CCCCC2)cc1 | 17.8%
13 | Cc1cc(C(=O)N2CCN(c3ccc([N+](=O)[O-])cc3)CC2)co1 | -64.7%
14 | O/N=C\c1ccccc1Oc1ccc(F)cc1 | 16.2%
15 | CCCCOC(=O)c1ccc(NC(=S)NC(=O)c2c(Br)c(C)nn2C)cc1 | 15%
16 | CCc1ccc(S(=O)(=O)/N=C2\C=C(Nc3cccc(C(=O)O)c3)C(=O)c3ccccc32)cc1 | -1.15%
17 | O=C1CCN(Cc2ccc(Cl)cc2)N1 | 12.9%
18 | Cc1ccc(C)c(N2N=C(C(=O)Nc3ccccc3N3CCOCC3)CCC2=O)c1 | -12.6%
19 | Cc1cc(=O)[nH]c(SCC(=O)N2CCCc3ccccc32)n1 | 7.34%
20 | O=C(CSCc1ccc(Cl)cc1)c1ccco1 | 5.67%
21 | CCCOc1ccc(-c2csc3nc[nH]c(=O)c23)cc1 | 18%
22 | O=C(Nc1ccccc1Sc1ccccc1)c1ccccc1F | 4.1%
23 | O=C1SCCC1NS(=O)(=O)c1ccc([N+](=O)[O-])cc1 (stereo not drawn) | 1.84%

Row | Compound | hERG current change (%, negative = inhibition) at 1uM
24 | CCN(CC)S(=O)(=O)c1ccc(N2CCc3cc(OC)c(OC)cc3C2)nc1 | 7.15%
25 | Cc1nn(C)cc1CNC(=O)Nc1ccc(Cl)cc1 | 1.56%
26 | CC1(C)OC(=O)C(=CNCC(=O)NCC(=O)O)C(=O)O1 | 8.39%
27 | Nc1ccccc1C(=O)N/N=C1/C2CN3CCN(C2)CC1(Cc1ccccc1)C3 | -2.94%
28 | CN1CCN(/N=C/c2nc(-c3ccccc3)n3ccccc23)CC1 | -0.698%
29 | O=C(Nc1cccc(-c2nc3ccccc3[nH]2)c1)c1ccc(C(=O)Nc2cccc(-c3nc4ccccc4[nH]3)c2)cc1 | 14.6%
30 | O=C(NCc1ccc(F)cc1)c1c2c(nc3ccccc13)CCN(Cc1ccccc1)C2 | 0.811%
31 | CC(=O)c1cccc(NC(=O)CN2CCN(S(=O)(=O)/C=C/c3ccccc3)CC2)c1 | -4.4%
32 | CCOC(=O)c1c(NC(=O)c2cccc(N3C(=O)CCC3=O)c2)sc2c1CCN(CC)C2.Cl | -3.48%
33 | O=C(c1ccc(Cl)c(S(=O)(=O)N2CCCCC2)c1)N1CCCCCC1 | 3.72%
34 | Cc1ccc(N2C(=O)c3ccccc3C2=O)cc1Cl | -3.5%
35 | CCOC(=O)c1c(C#N)c(SCC(=O)Nc2ccc(OC)cc2)nc2c1CN(CC)CC2 | 4.56%
36 | CCN(CC(=O)NC1CCS(=O)(=O)C1)S(=O)(=O)c1ccccc1 (stereo not drawn) | 13.5%
37 | COc1ccc(-n2cnnc2SCC(=O)N(C)C2CCS(=O)(=O)C2)cc1 (stereo not drawn) | -4.66%
38 | COc1cccc(C2=Nc3cccc4cccc(c34)N2)c1 | -0.475%
39 | O=C(c1ccccc1)c1ccc(OCC(O)CN2CCCCC2)cc1 (stereo not drawn) | -14.1%
40 | O=C(CCN1CCN(Cc2ccccc2)CC1)NNC(=O)Nc1cccc(Cl)c1 | -6.89%
41 | CCCCCCNc1nc(OC)nc(N2CC3CC(C2)c2cccc(=O)n2C3)n1 (stereo not drawn) | -3.55%
42 | O=C(Nc1nc2ccccc2[nH]1)c1ccc(Cl)c(S(=O)(=O)N2CCCC2)c1 | 11.6%
43 | Cc1ccc(-c2csc(NC(=O)c3ccc(Br)cc3)c2C(=O)O)cc1 | 13.1%
44 | Cc1cc(C)n2nc(SCC(=O)Nc3ccccc3F)nc2n1 | -9.23%
45 | CCOC(=O)C1(Cc2ccccc2)CCCN(Cc2ccc(OCCO)cc2)C1 (stereo not drawn) | 16.7%
